Source: ChEMBL document CHEMBL4888484, “Replenishing the malaria drug discovery pipeline: Screening and hit evaluation of the MMV Hit Generation Library 1 (HGL1) against asexual blood stage Plasmodium falciparum ,using a nano luciferase reporter read-out” (2022)
Several values for one entry are separate records, joined by “and”; a condition that tells them apart may be missing. Equal entries are not always repeated. Screen size: about 150,000 compounds; about 540 (0.36%) showed an effect of 50% or more. Some of the results follow.

Tested on: Plasmodium falciparum
Experiment: Primary screen in NF54 nanoGlo assay, in single point, at 2uM, 72h; a lower Z score goes with more inhibition
Type: functional, Erythrocyte
Settings: timepoint 72 hour

COc1c(C)ncnc1N1CCC[C@H]1c1cccnc1
% Inhibition: -6%
Z score: 1.2

O=C(c1ccc(Cl)cc1)[C@H]1CCCN(Cc2cccc3c2OCO3)C1
% Inhibition: -15%
Z score: 2.28

COC[C@H](NCCc1c[nH]c2ccc(F)cc12)C1CC1
% Inhibition: 5%
Z score: -0.52

CCCCC(=O)N1CCN(Cc2ccncc2)[C@@H]2CS(=O)(=O)C[C@@H]21
% Inhibition: 8%
Z score: -1.6

CN1C2CCC1CN(c1ccc(C#N)cn1)CC2 (centres undefined)
% Inhibition: -3%
Z score: 0.33

O=C(c1cnns1)N1CCC[C@H](c2n[nH]c(=O)o2)C1
% Inhibition: 25%
Z score: -2.86

CCc1c(C(=O)N[C@H]2CCCc3ccccc32)c(=O)cc(C)n1CCN1CCCCC1
% Inhibition: -8%
Z score: 1.12

O=C(NC[C@H]1C[C@@H]2CCN1C[C@@H]2CN1CCOCC1)Nc1ccccc1
% Inhibition: -1%
Z score: 0.21

CN1CC[C@@H]2CN(S(=O)(=O)c3ccc(-c4ccccn4)s3)C[C@@H]21
% Inhibition: 6%
Z score: -0.75

Cc1occc1C(=O)Nc1ccc2c(c1)CNCC2
% Inhibition: -4%
Z score: 0.49

c1cncc(-c2noc(CN3CCOC4CCCCC43)n2)c1 (centres undefined)
% Inhibition: -8%
Z score: 1.45

COc1ccccc1Cn1cc(C(=O)NCCC(C)C)c(=O)c(C(=O)NCc2ccccn2)c1
% Inhibition: 2%
Z score: -0.29

C[C@@H](Cn1cncn1)NCc1ccc2sccc2c1
% Inhibition: -5%
Z score: 0.97

COc1ccc(F)c(-c2ccc3c(c2)CNCC3)c1
% Inhibition: 1%
Z score: -0.24

COc1cccc(C(=O)N2C3CCC2c2cncnc2C3)c1 (centres undefined)
% Inhibition: -13%
Z score: 2.15

Cc1c(C)[n+]([O-])c([C@@H](C(C)C)C2C(=O)N(C)C(=O)N(C)C2=O)n1Cc1ccccc1
% Inhibition: 3%
Z score: -0.51

Cc1ncccc1CN1CCCC2(C1)OCCO2
% Inhibition: -9%
Z score: 1.08

COc1ccc(N2C(=O)NC(=O)C3(Cc4cccc(F)c4N4CC(C)CC(C)C43)C2=O)cc1 (centres undefined)
% Inhibition: -2%
Z score: 0.34

CC[C@]1(c2ccccc2)C(=O)NC(=O)N(CN2CCOCC2)C1=O
% Inhibition: 7%
Z score: -1.03

COc1ccc(CCN2C(=O)NC(=O)C3(Cc4ccccc4N4CCOCC43)C2=O)cc1OC (centres undefined)
% Inhibition (2 µM): -10% and -8%
Z score (2 µM): 1.62 and 0.69

Cc1nc2ccc(N3CCC[C@H]3c3cccnc3)nn2n1
% Inhibition: -4%
Z score: 0.62

N#Cc1cccc(CNCCc2ccc3c(c2)OCCO3)c1
% Inhibition: 10%
Z score: -0.95

CC(=O)c1ccc(CN2C3CCC2CC3)cc1
% Inhibition: -16%
Z score: 1.79

Cc1ccccc1CC(=O)N1CC[C@H]2C(=O)N(Cc3ccc(F)cc3)CCN2CC1
% Inhibition: -9%
Z score: 1.21

CCCn1cnnc1CNS(=O)(=O)c1ccc2[nH]c(=O)oc2c1
% Inhibition: -5%
Z score: 0.67

CCOc1ccc(-n2c(=O)[nH]c(O)c([C@@H]3c4ccccc4CCN3C(C)=O)c2=O)cc1
% Inhibition: -5%
Z score: 0.64

Nc1ccnc(N2C[C@@H](c3cc(F)cc(F)c3)[C@@H]3[C@H]2C2CCN3CC2)n1
% Inhibition: -6%
Z score: 0.8

CN1CCO[C@@H]2CN(c3ccc4c(Cl)cccc4n3)C[C@@H]21
% Inhibition: 16%
Z score: -1.79

Cc1nc2c(C)cccc2cc1C(=O)N1C[C@@H]2CC[C@H]1CN(C)C2
% Inhibition: 2%
Z score: -0.39

COc1ccc(N2C(=O)N=C(O)C3(Cc4ccccc4N4CCN(C)CC43)C2=O)cc1 (centres undefined)
% Inhibition: -2%
Z score: 0.24

CS(=O)(=O)Cc1noc(CN2C3CCC2c2ccccc23)n1
% Inhibition: 2%
Z score: -0.29

Fc1ccccc1-c1cc(N2C[C@H]3CNC[C@H]3C2)n2nccc2n1
% Inhibition: -7%
Z score: 1.28

Cc1nsc(C(=O)N[C@@H](C)CF)n1
% Inhibition: -10%
Z score: 0.88

C1COC(CN2CCOC3CCCCC32)C1 (centres undefined)
% Inhibition: -5%
Z score: 0.81

CCc1c(C(=O)N[C@@H]2CCOc3c(C)cccc32)cnn1CC(C)C
% Inhibition: -4%
Z score: 0.72

O=C1NC(c2ccc(N3N=N3)cc2)(c2ccc(N3N=N3)cc2)c2ccccc21
% Inhibition: 16%
Z score: -2.2

CS(=O)(=O)CCC(=O)Nc1ccc(C#N)c(C(F)(F)F)c1
% Inhibition: -3%
Z score: 0.65

CCC(C)(C)N(C)Cc1cccnc1C
% Inhibition: 0%
Z score: 0.01

Cc1cc(C)c(CNCC(F)F)c(C)c1
% Inhibition: 3%
Z score: -0.3

CN(C)Cc1ccccc1-c1ccc2n(c1=O)C[C@H]1C[C@@H]2CN(Cc2ccc(F)cc2)C1
% Inhibition: 13%
Z score: -1.56

O=C(Cc1ccncc1)N1CC(N2CCOCC2)C1
% Inhibition: -1%
Z score: 0.12

Cc1nc(C)c(CN2CCOC3(CCCC3)C2)s1
% Inhibition: 0%
Z score: 0.03

C[C@@H](Cn1cncn1)NCc1ccco1
% Inhibition: -5%
Z score: 0.64

O=C1Nc2ccccc2O[C@H]1C(=O)N1CCC2(CC1)OCCO2
% Inhibition: -16%
Z score: 1.91

Cc1cc(Br)ccc1Cc1noc([C@H]2C[C@H]3CC[C@@H]2N3)n1
% Inhibition: 3%
Z score: -0.55

Cc1cccc2[nH]cc(CCN=C(N(C)C)N(C)C)c12
% Inhibition: 0%
Z score: 0.05

CC(C)c1nnc(N2CCN(C)C(C)(C)C2)s1
% Inhibition: -16%
Z score: 2.13

O=C(Cc1cccc(F)c1)N1C[C@@H]2CC[C@H]1CN(Cc1cscn1)C2
% Inhibition: -8%
Z score: 1.28

CC[C@]1(N2CCN(C(=O)COc3cccc(Cl)c3)CC2)CCN(S(C)(=O)=O)C1
% Inhibition: -5%
Z score: 0.53

NC(=O)c1ccnc(N2CCN3CCCC[C@H]3C2)c1
% Inhibition: -6%
Z score: 0.66

O=C(O)C1CC2CCC1N2Cc1csc(C2CCCCC2)n1 (centres undefined)
% Inhibition: -1%
Z score: 0.18

COc1ccc(CNC2CCCC2O)cn1 (centres undefined)
% Inhibition: -15%
Z score: 1.94

CCc1cc2c(N3CCN4CCOC[C@]4(CO)C3)nc(C)nc2s1
% Inhibition: 2%
Z score: -0.36

CCN1CC2(CN(Cc3cccnc3)C[C@@H]3C[C@@H](O)CN32)C1
% Inhibition: -4%
Z score: 0.65

COC(C)(C)C[C@H](C)NC1(c2ccc(C)cc2)CC1
% Inhibition: 1%
Z score: -0.09

O=C(Cc1cccs1)NCC1CCN(C(=O)Oc2ccccc2)CC1
% Inhibition: -5%
Z score: 0.99

Cc1nc(Cn2c(=O)oc3cccnc32)sc1C
% Inhibition: -3%
Z score: 0.5

c1ccc(C2CNC3CCCCC32)cc1 (centres undefined)
% Inhibition: -16%
Z score: 1.83

CCc1ccc(NC(=O)N2CCN3CCC2CC3)cc1F
% Inhibition: 13%
Z score: -1.28

C[C@H]1COC(C)(C)CN1CCc1nsc2ccccc12
% Inhibition: -4%
Z score: 0.61

COc1ccc2c(c1)[C@@]1(CCN(C(=O)c3ccccc3C)C1)C(=O)N2
% Inhibition: -3%
Z score: 0.33

CNC1(c2nnnn2-c2ccccc2)CCCCC1
% Inhibition: -6%
Z score: 0.91

O=C(c1ccon1)N1C[C@@H](c2ccc3c(c2)OCO3)[C@@H]2[C@H]1C1CCN2CC1
% Inhibition: -4%
Z score: 0.82

Cn1ncnc1CN1C2CCC1CC(Cc1ccccc1)C2 (centres undefined)
% Inhibition: -17%
Z score: 2.21

Cc1nc(N2C[C@H]3CC[C@@H](C2)NC3)c2ccsc2n1
% Inhibition: -19%
Z score: 2.35

CC[C@]1(c2ccccc2)C(=O)N(C)C(=O)N(C(=O)c2ccccc2)C1=O
% Inhibition: -6%
Z score: 1.06

COc1ccccc1[C@H]1CN(c2ccc(C(C)=O)cn2)[C@@H]2C3CCN(CC3)[C@H]12
% Inhibition: -1%
Z score: 0.09

O=C(CN1C(=O)c2cccnc2Oc2ccccc21)N1CCC2(CC1)OCCO2
% Inhibition: -10%
Z score: 1.29

COCCN1[C@@H]2CN(Cc3ccncc3Cl)C[C@@H]2OCCS1(=O)=O
% Inhibition: -4%
Z score: 0.64

CCc1nsc(NC2CCN3CCCC3C2)n1 (centres undefined)
% Inhibition: -1%
Z score: 0.26

N=C1c2ccccc2CN1c1ncc(Cl)cc1Cl
% Inhibition: -4%
Z score: 0.58

O=C(NCC#CCN1CCCCC1)c1ccsc1
% Inhibition: -1%
Z score: 0.27

CC1CCC(NCCC2(C)OCCO2)CC1C (centres undefined)
% Inhibition: -10%
Z score: 1.28

O=c1[nH]c2ccccc2c(=O)n1CC1(N2CCOCC2)CCCCC1
% Inhibition: -5%
Z score: 0.9

O=C(c1cc[nH]n1)N1[C@H]2CC[C@@H]1c1cnc(-c3ccccc3)nc1C2
% Inhibition: -5%
Z score: 0.73

CCn1cc(C(=O)Nc2ccc(F)cc2F)c2cccnc21
% Inhibition: 13%
Z score: -1.68

Cc1ccc(F)cc1C(=O)N1C[C@H](c2ccccc2)[C@@H]2[C@H]1C1CCN2CC1
% Inhibition: -1%
Z score: 0.22

CC[C@]1(c2ccccc2)C(=O)N(C(=O)c2ccccc2)C(=O)N(C(=O)c2ccccc2F)C1=O
% Inhibition: -3%
Z score: 0.33

CNc1nc(CN2C[C@H]3CC(C)=CC[C@H]3C2)cs1
% Inhibition: 4%
Z score: -0.67

Cc1c(C(=O)N2CCC3(CC2)OCCO3)cnn1C
% Inhibition: -6%
Z score: 1.2

CCNC(=O)CN1C[C@@H]2CC[C@H]1CN(Cc1c(C)noc1C)C2
% Inhibition: -8%
Z score: 1.62

COc1ccc(CN2CCOC[C@@]23CCOC3)nn1
% Inhibition: -2%
Z score: 0.33

C[C@@H](Cc1ccc(Cl)cc1)NCCc1nnc2ccccn12
% Inhibition: 5%
Z score: -0.66

O=C1CCCN1c1ccc(N[C@H]2CN3CCC2CC3)cc1
% Inhibition: 0%
Z score: -0.04

CCc1ccc(CN2C[C@@H]3CCC[C@H](C2)C(=O)N3)nc1
% Inhibition: -13%
Z score: 2.37

O=c1ccc2ccccc2n1Cc1cncn1C1CC1
% Inhibition: -7%
Z score: 1.31

CC1CCC(c2nnnn2-c2ccc(Cl)cc2)(N2CCOCC2)CC1 (centres undefined)
% Inhibition: 8%
Z score: -0.94
